Experimental data published in PubChem BioAssay AID686978 (National Center for Advancing Translational Sciences (NCATS), 2013).
The whole screen tested about 420,000 compounds, of which about 64,000 (15%) were called active. The inconclusive results got no clear call from the source; some entries with a clear call stand among them for comparison. Calls follow the shape of the dose curve; as a rule, active = well fitted inhibition curve with a large enough effect; inconclusive = small, poorly fitted or top-dose-only effect; inactive = flat fitted curve, though single readings scatter. Potencies of inconclusive entries are left out as doubtful fits.

experiment: qHTS for Inhibitors of human tyrosyl-DNA phosphodiesterase 1 (TDP1): qHTS in cells in absence of CPT; details: DT40 Tdp1-/- hTDP1 cells, no CPT, ATP luminescence, 48 h; activity change, negative = growth inhibition: at 46.2 µM (top of the series) unless noted; also: nearly all actives have a fitted effect of over 55% in size
How it was run: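 Growth of hTDP1-complemented DT40 Tdp1-knockout cells is measured by ATP luminescence after at least 48 hr compound exposure at 37 °C, with DMSO substituting for the 20 nM CPT used in the parallel screen.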
% is scaled to controls: 0 for no effect and ±100 for the full control effect; potency is read from the fitted curve at half-maximal effect; tags tell the direction and shape of the fitted curve.

SMILES | activity change, negative = growth inhibition | Potency
CC(C)NC(=O)CN1CCN(C(=O)CCl)CC1 | inactive: 2.64% | –
CC(C)CCNC(=O)Nc1cc(C(=O)NCc2cccc(F)c2)ccc1N1CCCC1 | – | inconclusive [inhibitor, single point]
CCOc1cc(/C=C2\SC(=S)N(NS(=O)(=O)c3ccc(C)cc3)C2=O)ccc1O | inactive: -3.41% | –
COc1ccc(CCNC(=O)Nc2ccc(F)cc2F)cc1OC | inactive: 0.344% | –
O=CNC1(c2ccccc2)CCCCC1 | inactive: -27.8% | –
CCCCOC(=O)c1sc2nc(C)cc(C)c2c1N | – | inconclusive [inhibitor, single point]
CCOC(=O)c1ccc(CN(Cc2ccc(C)cc2)S(=O)(=O)c2ccc(NC(C)=O)cc2)cc1 | – | active: 14.6 µM
COc1cc(NC(=O)c2cc(-c3ccccc3)on2)cc(OC)c1OC | – | active: 13 µM
CCC1(CC)N=C(c2ccccc2)C(=S)N1 | inactive: 12% | –
CC(C)CC(=O)/C=C/n1c(=S)oc2ccccc21 | – | active: 2.31 µM
CCOc1cc(S(=O)(=O)NCc2ccc3c(c2)OCO3)ccc1F | – | inconclusive [inhibitor, partial curve]
CCOC(=O)Cc1csc(NC(=O)c2cc(C)c(C)s2)n1 | – | active: 23.1 µM
N#Cc1ccc(Sc2ccccn2)c([N+](=O)[O-])c1 | – | inconclusive [inhibitor, single point]
CCCCN1C(=O)N(c2ccccc2Cl)C(C)(O)CC1(C)C (stereo unspecified) | – | inconclusive [inhibitor, partial curve]
O=C(CCc1ccccc1)N=C1SC2CS(=O)(=O)CC2N1c1ccccc1 (stereo unspecified) | inactive: 1.86% | –
CCC1(c2ccccc2)NC(=O)N(CC(=O)NNC(=O)c2ccoc2C)C1=O (stereo unspecified) | inactive: 1.34% | –
COc1ccc2[nH]c(=O)c(CN(Cc3cccnc3)C(=S)NCC3CCCO3)cc2c1 (stereo unspecified) | – | active: 20.6 µM
CCC(=O)N1N=C(c2c(-c3ccccc3)c3cc(Cl)ccc3[nH]c2=O)CC1c1ccco1 (stereo unspecified) | – | active: 23.1 µM
O=C(CSc1nc(-c2ccc(F)cc2)nc2c1Cc1ccccc1O2)Nc1ccc(C(=O)O)cc1 | inactive: -3.15% | –
CCc1nnc(NC(=O)c2cccc(S(=O)(=O)N3CCN(C)CC3)c2)s1 | – | inconclusive [inhibitor, single point]
CC(=O)NC(Cc1c[nH]c2ccccc12)C(=O)OCC(=O)N1CCCCCC1 (stereo unspecified) | inactive: -19.3% | –
CCn1cc2nc(SCc3ccc(F)cc3)n(Cc3ccc(Cl)cc3)c(=O)c2n1 | – | active: 3.26 µM
CCN1CCN(S(=O)(=O)c2ccc(Cl)c(C(=O)N(C)Cc3ccc(C(C)(C)C)cc3)c2)CC1 | – | active: 11.6 µM
CC1CN(C(=O)c2ccc(Oc3ccccc3)cc2)CC(C)O1 (stereo unspecified) | – | inconclusive [inhibitor, single point]
COc1ccc(C)c(-n2c(N)cc(=O)n(Cc3ccccc3)c2=O)c1 | inactive: -10.5% | –
CCOC(=O)c1c(S(=O)(=O)NCC(=O)N2CCN(c3cccc(OC)c3)CC2)c(C)n(C)c1C | inactive: 5.92% | –

SMILES | activity change, negative = growth inhibition | Potency
COc1ccc(OC(C)C(=O)Nc2ccccc2C(F)(F)F)cc1 (stereo unspecified) | – | inconclusive [inhibitor, partial curve]
Fc1ccc(N2CCN(/C=C/c3nnnn3-c3ccccc3)CC2)cc1 | – | inconclusive [inhibitor, single point]
Cc1cccn2c(=O)nc(SCC(=O)N3CCCCCC3)nc12 | inconclusive: -34.3% [inhibitor] | –
CC1C(=O)N(Cc2cn(Cc3ccco3)nn2)CCS(=O)(=O)N1Cc1ccc(-c2ccc(F)nc2)cc1 (stereo unspecified) | – | inconclusive [inhibitor, single point]
Oc1[nH]c2ccccc2c1C=Nc1ccc2c(c1)OCO2 | – | inconclusive [inhibitor, single point]
O=C(O)c1ccc2cc(-c3ccccc3)[nH]c2c1 | inactive: 2.81% | –
O=C(NCCc1cccc(Cl)c1)c1cccc(-n2cnnn2)c1 | – | inconclusive [inhibitor, single point]
N#C/C(=C\c1c[nH]c2ccccc12)C(=O)NC1CC1 | inactive: -19.7% | –
O=C(Nc1ccc(S(=O)(=O)N(Cc2ccccc2)c2ccccc2)cc1)c1ccc([N+](=O)[O-])cc1 | – | inconclusive [inhibitor, partial curve, poor fit]
O=C(NCc1ccc2c(c1)CCN2C(=O)c1ccccc1)c1ccco1 | – | inconclusive [inhibitor, single point]
CC(C)C[C@H](NC(=O)c1nc[nH]c1C(=O)NCCNC(=O)OC(C)(C)C)C(=O)CNCCNC(=O)c1[nH]cnc1C(=O)N[C@@H](C)C(=O)OC(C)(C)C | – | inconclusive [inhibitor, partial curve]
C[C@@H](C(=O)Nc1ccc2ccccc2c1)[C@@H]1C[C@@]1(C)[C@@H](N)c1ccccc1 | – | inconclusive [inhibitor, single point]
COc1ccc(CNC(=O)C2CCCN2C(=O)Nc2cccc(Cl)c2)cc1 (stereo unspecified) | – | inconclusive [inhibitor, single point]
CC(C)c1ccc(NC(=O)C2=CC=CN3CCS(=O)(=O)N=C23)cc1 | – | inconclusive [inhibitor, single point]
COCCn1c(SCC(=O)Nc2ccc(C(F)(F)F)cc2)nc2c([nH]c3ccccc32)c1=O | – | inconclusive [inhibitor, single point]
Cc1ccc(NC(=O)c2oc3ccc(S(=O)(=O)N4CCC5(CC4)OCCO5)cc3c2C)c(C)c1 | – | active: 6.51 µM
CC(C)=NNC(=O)CN1C(=O)NC2NC(=O)NC21 (stereo unspecified) | inactive: -12.8% | –
CCC(C(=O)OC)n1cnc2c(nnn2-c2cccc(OC)c2)c1=O (stereo unspecified) | inactive: -17.8% | –
Cc1c(C(=O)N2CCC(C(N)=O)CC2)sc(N)c1C#N | inactive: -5.11% | –
COc1ccc(Cn2nnnc2CN2CCC(O)(c3ccc(F)cc3)CC2)cc1 | inconclusive: -33.4% [inhibitor] | –
Brc1ccc(-c2nc3ncccn3c2NC2CCCCC2)o1 | – | inconclusive [inhibitor, partial curve, poor fit]
Cc1nnc(NC(=O)CSc2nnc(CCc3nc4ccccc4[nH]3)n2C)s1 | inactive: -8.39% | –
O=[N+]([O-])c1cccc(CSc2ncnc3ccccc23)c1 | inconclusive: -34.6% [inhibitor] | –
O=C(Cc1ccc(S(=O)(=O)N2CCOCC2)s1)Nc1ccc(N2CCOCC2)cc1 | inactive: -10.3% | –
COc1ccc(CCN2C(=O)C3CC=C(C)CC3C2=O)cc1OC (stereo unspecified) | inactive: -29.3% | –
O=C(COC(=O)c1cc(S(=O)(=O)N2CCCCC2)ccc1N1CCOCC1)NCCc1ccc(F)cc1 | – | active: 10.3 µM

SMILES | activity change, negative = growth inhibition | Potency
O=C(COC(=O)[C@H](Cc1ccccc1)N1C(=O)c2ccccc2C1=O)Nc1ccc2c(c1)OCO2 | – | inconclusive [inhibitor, partial curve]
O=C(CCC1N=C2c3ccccc3N=C(SCC(=O)NCc3ccco3)N2C1=O)NCc1ccco1 (stereo unspecified) | inactive: -15.9% | –
CN1N=C(c2ccc(Cl)cc2)CC(c2ccc(Cl)cc2)C1=O (stereo unspecified) | – | inconclusive [inhibitor, single point]
CCOc1ccc(S(=O)(=O)N2CCCCC2)cc1NC(=O)CN1CCCC1c1cccs1 (stereo unspecified) | – | active: 2.06 µM
Cc1ccc(F)cc1CNC(=O)C1CCC(=O)N(CC2CCCCC2)C1 (stereo unspecified) | inactive: 1.33% | –
O=C(NCC(=O)N1CCCCCC1)c1ccc(Cl)cc1 | – | inconclusive [inhibitor, single point]
CCn1c(=O)cc(OCC(=O)NCCCN2CC(C)CC(C)C2)c2ccccc21 (stereo unspecified) | inconclusive: -31.3% [inhibitor] | –
COc1cc(C(=O)N[C@H](C(=O)NC2CCCc3ccccc32)C(C)C)cc(OC)c1OC (stereo partly specified) | – | inconclusive [inhibitor, partial curve, poor fit]
O=C(CCNS(=O)(=O)c1ccc(Cl)cc1)OCC(=O)c1ccc[nH]1 | inactive: -5.55% | –
CCCN(CC(=O)Nc1ccccc1C)C(=O)CCl | – | active: 2.06 µM
CCCNC(=O)C1(C)CCCN(Cc2cccc3ccccc23)C1 (stereo unspecified) | – | inconclusive [inhibitor, single point]
Cc1ccc2c(C(=O)CNc3nccs3)c(C)[nH]c2c1 | – | inconclusive [inhibitor, single point]
CC(Oc1ccc(Br)cc1)C(=O)N1CCc2ccccc21 (stereo unspecified) | – | inconclusive [inhibitor, single point]
COc1ccccc1C1CCN(c2ccc([N+](=O)[O-])c(OC)c2)CC1 | – | inconclusive [inhibitor, single point]
Cc1ccc(N2CCN(C(=S)c3ccc(-c4ccccc4[N+](=O)[O-])o3)CC2)cc1 | – | inconclusive [inhibitor, single point]
COc1ccccc1-c1nnc(SCC(=O)Nc2ccc(N3CCOCC3)cc2)n1C | inactive: -6.68% | –
Cc1ccc(NC(=O)c2cncc(Br)c2)nc1 | inactive: 6.32% | –
O=C(Nc1ccc(F)c(Cl)c1)c1csc(COCCO)n1 | inactive: -23.6% | –
Cc1ccc2nc(SCC(=O)NC3CC3)[nH]c2c1 | inactive: 13.1% | –
NCCNC(=O)c1c(O)c2cccc3c2n(c1=O)CCC3 | – | inconclusive [inhibitor, partial curve]
O=C(Nc1cccc(C(=O)O)c1)/C(=C\c1ccc(F)cc1)NC(=O)c1ccco1 | inactive: 10.7% | –
CCc1cc2c(-c3ccccc3)cc(=O)oc2cc1OC(=O)c1cccs1 | – | inconclusive [inhibitor, single point]
COC(=O)c1ccc2nc(C3CCCCC3)c(Cc3ccccc3)n2c1 | – | active: 9.2 µM
COc1cc(C(=O)OCc2csc(CC(=O)Nc3cc(C)ccc3C)n2)ccc1OC(F)F | – | inconclusive [inhibitor, single point]
